{"source": "PubChem BioAssay AID463173", "about": "(ICCB-Longwood Screening Facility, Harvard Medical School, 2010)", "note": "The campaign covered roughly 52,000 compounds. About 1,700 (3.3%) were called active. Rule as the data show it: active = survival mostly below about 52% (no sharp cut-off); inactive = mostly above about 56%. The list shows a part of the results.", "data": [{"system": "Wild type", "assay": "growth inhibition of S. aureus wild type versus tarO mutant, primary screen, teichoic acid synthesis inhibitors, RN4220, OD600 (AID 463173)", "details": "S. aureus RN4220 wild type/DeltatarO growth, OD600, 18 h, active compounds read low, screened at 18.75 µg/mL (by protocol)", "values": [{"smiles": "CCOCCCNC(=O)CN1C(=O)COc2ccc(S(=O)(=O)N3CCCC3)cc21", "survival": "inactive: 77%"}, {"smiles": "CCOC(=O)c1c(C)[nH]c(C)c1S(=O)(=O)N1CCCC(C(=O)NCc2ccc(Cl)cc2)C1", "note": "(configuration not stated)", "survival": "inactive: 59%"}, {"smiles": "COc1ccccc1CN1C(=O)CN(C2CCCCCC2)C(=O)C1c1ccc(F)cc1", "note": "(configuration not stated)", "survival": "inactive: 77%"}, {"smiles": "N#C/C(=C\\c1cn(Cc2ccccc2C#N)c2ccccc12)C(=O)NCc1cccs1", "survival": "inactive: 110%"}, {"smiles": "Cc1ccc2nc(Nc3ccc(C)c(F)c3)c3nncn3c2c1", "survival": "inactive: 43%"}, {"smiles": "Cc1ccc(CNC(=O)CCn2cnc3ccccc3c2=O)cc1", "survival": "inactive: 80%"}, {"smiles": "Cc1c(Cl)cccc1NC(=O)C1CCN(c2ncnc3c2nc2n3CCCCC2)CC1", "survival": "inactive: 129%"}, {"smiles": "CCN(C(=O)Nc1cn(CC(C)C)c(=O)c2ccccc12)c1cc(C)ccc1C", "survival": "inactive: 65%"}, {"smiles": "Cc1ccc(N2CC(NC(=O)c3ccc(S(=O)(=O)N4CCOCC4)cc3)CC2=O)cc1", "note": "(configuration not stated)", "survival": "inactive: 47%"}, {"smiles": "CCOC(=O)c1cnn(-c2ccc(C(=O)Nc3cccc(C(C)=O)c3)cc2)c1N", "survival": "inactive: 47%"}, {"smiles": "CCn1nc(C)c(CCN(C)C(=O)Nc2cc(OC)c(OC)c(OC)c2)c1C", "survival": "inactive: 71%"}, {"smiles": "Cc1ccnc(NC(=O)CCCOc2ccc(Cl)cc2Cl)c1", "survival": "inactive: 98%"}, {"smiles": "O=C(COCc1cc(-c2cccs2)on1)N1CCN(c2cccc(Cl)c2)CC1", "survival": "active: 10%"}, {"smiles": "COc1ccc2cc(C(=O)NCc3ccc4c(c3)CCN4C(=O)c3ccc(F)cc3)[nH]c2c1", "survival": "inactive: 68%"}, {"smiles": "COc1ccc(-n2c(C)nc(=O)c(-c3ccccc3)c2C)cc1", "survival": "inactive: 106%"}, {"smiles": "O=C(O)c1c2c(nc3ccc(F)cc13)CCCC2", "survival": "inactive: 114%"}, {"smiles": "O=C(CCn1c(=O)c2cccn2c2cccnc21)N1CCN(c2ccccc2F)CC1", "survival": "inactive: 86%"}, {"smiles": "COc1cc(C)cc2oc(=O)c(CC(=O)NCCc3ccc(Cl)cc3)c(C)c12", "survival": "inactive: 118%"}, {"smiles": "Fc1cccc(-c2nnn3c2nc(NCCc2ccccc2)c2ccccc23)c1", "survival": "inactive: 87%"}, {"smiles": "Cc1cccc(OCC(=O)Nc2ccc(-c3nc4ccccc4o3)cc2)c1C", "survival": "inactive: 73%"}, {"smiles": "COc1ccc(-c2cc(C(F)(F)F)n3nc(C(=O)NCCN4CCOCC4)c(Br)c3n2)cc1", "survival": "inactive: 101%"}, {"smiles": "CC(C)CNC(=O)N1[C@H](c2cccs2)[C@@H](C)C(=O)[C@@H](C)[C@@H]1c1cccs1", "survival": "inactive: 74%"}, {"smiles": "CC(=O)NC1(c2ccccc2)CCN(Cc2nnnn2C(C)(C)C)CC1", "survival": "inactive: 102%"}, {"smiles": "COc1ccc(C)cc1NS(=O)(=O)c1c(C(=O)N2CCCCCC2)c(C)n(C)c1C", "survival": "inactive: 85%"}, {"smiles": "CCn1nnnc1SCC(=O)c1ccc(C)cc1C", "survival": "inactive: 103%"}, {"smiles": "CC(C)OCCCNC(=O)Cn1ccc2cc(S(=O)(=O)N3CCCCCC3)ccc21", "survival": "inactive: 124%"}, {"smiles": "COc1ccc(CC(=O)NCCc2csc(-c3cccc(C)c3)n2)cc1", "survival": "inactive: 74%"}, {"smiles": "CC(C)Nc1nc(NC(C)C)nc(C(N)=O)n1", "survival": "inactive: 112%"}, {"smiles": "COc1ccc(C)cc1NC(=O)C1CCN(S(=O)(=O)c2ccc(OC)c(OC)c2)CC1", "survival": "inactive: 92%"}, {"smiles": "CC(C)NC(=O)c1cnn2c(C(F)F)cc(-c3ccccc3)nc12", "survival": "inactive: 112%"}, {"smiles": "O=c1c2ccccc2nc2c3ccccc3c(N3CCCCCC3)nn12", "survival": "inactive: 105%"}, {"smiles": "CC(=O)c1cccc(NC(=O)CC(c2ccc(C)cc2)N2Cc3ccccc3C2=O)c1", "note": "(configuration not stated)", "survival": "inactive: 77%"}, {"smiles": "Cc1nc(-c2ccccc2)sc1-c1ccc(SCC(=O)NCc2ccc(Cl)cc2)nn1", "survival": "inactive: 92%"}, {"smiles": "Cc1oc(-c2ccccc2Cl)nc1Cn1c(SCc2cccc(F)c2)nc2cccnc21", "survival": "inactive: 71%"}, {"smiles": "C=Cn1c(C(=O)O)ccc1-c1ccc(OC)cc1", "survival": "inactive: 125%"}, {"smiles": "Cc1ccc(CCNS(=O)(=O)c2ccc3c(c2)CC(C)N3C(=O)C2CCC2)cc1", "note": "(configuration not stated)", "survival": "inactive: 71%"}, {"smiles": "Cc1ccc(-n2c(=O)[nH]c3cc(C(=O)NCc4ccccc4)ccc3c2=O)cc1", "survival": "inactive: 92%"}, {"smiles": "COc1cc2ncc(C(=O)c3ccc(C)cc3)c(N3CCCCC3)c2cc1OC", "survival": "active: 2%"}, {"smiles": "CC(CNC(=O)c1nnc(Cc2ccc(F)cc2)o1)c1ccccc1", "note": "(configuration not stated)", "survival": "inactive: 89%"}, {"smiles": "Cc1ccc(-n2nc3c(=O)n(CC(=O)NCCC(C)C)nc(C)c3c2C)cc1", "survival": "inactive: 45%"}, {"smiles": "O=C1CC(NC2CC2)C(=O)N1c1ccccc1", "note": "(configuration not stated)", "survival": "inactive: 108%"}, {"smiles": "COCCCNC(=O)Cn1c(=O)nc(-c2ccccc2)c2ccccc21", "survival": "inactive: 80%"}, {"smiles": "CCOc1ccc(CCNC(=O)c2cc(C)nc3c2c(C)nn3-c2cccc(F)c2)cc1", "survival": "inactive: 70%"}, {"smiles": "Cc1cccn2c(=O)c(C(=O)NCCc3ccccc3)cnc12", "survival": "inactive: 49%"}, {"smiles": "CCCCC12CN3CC(C)(CN(C1)C3c1ccc(O)c(OC)c1)C2=O", "note": "(configuration not stated)", "survival": "inactive: 86%"}, {"smiles": "COc1ccc(Cn2cc(C(=O)c3ccc(C)c(C)c3)c(=O)c3ccccc32)cc1", "survival": "inactive: 72%"}, {"smiles": "O=C(Cn1cc(S(=O)(=O)Cc2cccc(Cl)c2)c2ccccc21)Nc1ccccc1Cl", "survival": "inactive: 54%"}, {"smiles": "COc1cccc(NC(=O)CSc2nccn2C2CCCC2)c1", "survival": "inactive: 73%"}, {"smiles": "COc1ccc(CNCCC(c2ccc3c(c2)OCO3)c2ccccc2OC)cc1", "note": "(configuration not stated)", "survival": "inactive: 25%"}, {"smiles": "CC1CCN(c2nc3ccc(C(=O)NCc4ccccc4Cl)cc3s2)CC1", "survival": "inactive: 89%"}, {"smiles": "O=C(NC1CCCC1)c1ccc2c(c1)N(Cc1ccccc1)C(=O)c1ccccc1S2", "survival": "inactive: 79%"}, {"smiles": "Cc1ccc(F)cc1NC(=O)Cn1c(C)cc(C)c(C#N)c1=O", "survival": "inactive: 131%"}, {"smiles": "COc1ccc(C2=C(N3CCN(c4cccc(C)c4)C(C)C3)c3ccccc3C2=O)cc1", "note": "(configuration not stated)", "survival": "inactive: 68%"}, {"smiles": "COc1cccc(CNC(=O)Cc2c(C)c3ccc(OC)c(C)c3oc2=O)c1", "survival": "inactive: 90%"}, {"smiles": "NC(=O)C1CCN(C(=O)Cc2ccc(Cl)cc2)CC1", "survival": "inactive: 88%"}, {"smiles": "CCCCCCNc1nc(Oc2ccccc2)nc(Oc2ccccc2)n1", "survival": "inactive: 110%"}, {"smiles": "COc1ccc(N2CCN(Cc3nc4c(c(=O)[nH]c(=O)n4C)n3CC(C)C)CC2)cc1", "survival": "inactive: 149%"}, {"smiles": "O=C(NCc1cccc(Br)c1)c1ccc(NC(=O)N2CCCCc3ccccc32)cc1", "survival": "inactive: 79%"}, {"smiles": "Cc1ccc(S(=O)(=O)c2nnn3c2nc(NCCc2ccccc2)c2sccc23)cc1", "survival": "inactive: 64%"}, {"smiles": "Cc1ccc(CNC(=O)c2c[nH]n3c(=O)c(Cc4ccc(Cl)cc4)c(C)nc23)cc1", "survival": "active: -14%"}, {"smiles": "Cc1ccccc1C(=O)Nc1c(C)nc2ccccn2c1=O", "survival": "active: 10%"}, {"smiles": "Cn1c(=O)oc2cc(S(=O)(=O)N3CCCC(C(=O)NCCc4ccccc4)C3)ccc21", "note": "(configuration not stated)", "survival": "inactive: 91%"}, {"smiles": "CC(=O)c1ccc(NS(=O)(=O)c2ccc3[nH]c4c(c3c2)CCCC4)cc1", "survival": "inactive: 84%"}, {"smiles": "Cc1ccc2[nH]c(=O)c(CNCCCO)cc2c1", "survival": "inactive: 108%"}, {"smiles": "CC1(C)NC(=O)N(CC(O)COc2ccc(N3C(=O)c4ccccc4C3=O)cc2)C1=O", "note": "(configuration not stated)", "survival": "inactive: 104%"}, {"smiles": "CCc1ccc(S(=O)(=O)c2cn(Cc3ccccc3F)c3cc(OC)c(OC)cc3c2=O)cc1", "survival": "inactive: 85%"}, {"smiles": "COc1ccc(NC(=O)CSc2nnc(NC(=O)NC3CCCCC3)s2)cc1OC", "survival": "inactive: 65%"}, {"smiles": "Cc1cccc(CNC(=O)c2ccc3nc(Cc4ccccc4)oc3c2)c1", "survival": "inactive: 130%"}, {"smiles": "O=C(NCCc1ccccc1)c1nn(-c2ccc(F)cc2)nc1CO", "survival": "inactive: 126%"}, {"smiles": "COCCCn1c(SCC(=O)N2CC(=O)Nc3ccccc32)nnc1-c1ccoc1C", "survival": "inactive: 93%"}, {"smiles": "CCOc1ccc(C2c3[nH]c4ccccc4c3CCN2C(=O)CSCc2ccc(F)cc2)cc1", "note": "(configuration not stated)", "survival": "inactive: 113%"}, {"smiles": "Cc1ccc(CCNC(=O)c2c3c(nc4ccccc24)C(=O)N(C2CCCCC2)C3)cc1", "survival": "inactive: 73%"}, {"smiles": "Cc1cc(S(=O)(=O)NCC(c2ccco2)S(=O)(=O)c2cccs2)ccc1F", "note": "(configuration not stated)", "survival": "inactive: 95%"}, {"smiles": "Cc1cccc(NC(=O)CS(=O)(=O)c2cccc3nsnc23)c1", "survival": "inactive: 64%"}, {"smiles": "COC(=O)c1ccccc1NC(=O)CSc1nc(=O)cc(N)n1-c1ccccc1", "survival": "inactive: 72%"}, {"smiles": "CCOc1ccc(NC(=O)CSc2nnc(-c3ccc(OCC)cc3)o2)cc1", "survival": "inactive: 85%"}, {"smiles": "Cc1ccc(NC(=O)Cn2c(=O)n(Cc3nc(-c4ccccc4)no3)c(=O)c3ccccc32)cc1C", "survival": "inactive: 71%"}, {"smiles": "Cc1cccc(NC(=O)COc2ccc(-c3nn(C)c(=O)c4ccccc34)cc2)c1", "survival": "inactive: 69%"}, {"smiles": "CCOc1ccc(CCNC(=O)CCCc2nnc3n(CC)c(=O)c4sccc4n23)cc1OCC", "survival": "inactive: 89%"}, {"smiles": "Cc1ccc(CNC(=O)c2c(-c3ccccc3Cl)noc2C)o1", "survival": "inactive: 81%"}, {"smiles": "Cc1coc2cc3oc(=O)c(CC(=O)NCc4cccc(Cl)c4)c(C)c3cc12", "survival": "inactive: 106%"}, {"smiles": "COc1cc(OC)c(NC(=O)CN2CCCN(Cc3ccccc3C)S2(=O)=O)cc1Cl", "survival": "inactive: 75%"}, {"smiles": "Nc1ccc(N=C2C(=O)Nc3ccccc32)cc1", "survival": "inactive: 111%"}, {"smiles": "COc1ccc(CNC(=O)Nc2ccc3c(c2)N(C)C(=O)c2ccccc2S3)cc1OC", "survival": "inactive: 86%"}, {"smiles": "Cc1ccc(-n2nnnc2CNC(=O)c2ccc(F)cc2)cc1C", "survival": "inactive: 124%"}, {"smiles": "CCOc1ccc(N2CC(C#N)=C3c4cc(OC)c(OC)cc4CCN3C2)cc1", "survival": "inactive: 97%"}, {"smiles": "COc1ccccc1-c1nn2c(=O)cc(CN3CCN(S(=O)(=O)c4ccc(C)cc4)CC3)nc2s1", "survival": "inactive: 66%"}, {"smiles": "Brc1ccc(CNCCCSc2nnnn2-c2ccccc2)cc1", "survival": "inactive: 87%"}, {"smiles": "Cc1cccc(-c2noc(CNC(=O)c3ccco3)n2)c1", "survival": "inactive: 85%"}, {"smiles": "Clc1cccc(N2CCN(c3ncnc4c3nc3n4CCCC3)CC2)c1", "survival": "inactive: 117%"}, {"smiles": "CCOC(=O)c1ccc(NC(=O)C2Cc3ccccc3C(=O)O2)cc1", "note": "(configuration not stated)", "survival": "inactive: 79%"}, {"smiles": "COC(=O)c1cc2oc3ccccc3c2n1CC(=O)Nc1cc(OC)cc(OC)c1", "survival": "inactive: 72%"}]}]}
